The series has as its system ATP. Description: switch fluorescence ratio, 500 uM ATP over buffer (Cy3 cluster intensity, sum of 5 cycles each) (fold (ratio)); higher = stronger signal-on switching upon ATP binding; sequences stand for … in TCGTCGGCAGCGTCAGATGTGTATAAGAGACAGTTTTTTTTTTTTTTTTTTTTTTTTT…TC. Conditions: aptamer strand: ATP DNA aptamer (quencher-CACCTGGGGGAGTATTGCGGAGGAAGG + anchor), 100 nM annealed; ATP concentration: 500 uM; one replicate. In outline:
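Imaging in selection buffer was followed by imaging after 15 min with 500 uM ATP at 22 °C, for Cy3-labelled switching-strand clusters annealed to 100 nM quencher-labelled ATP aptamer on a modified Illumina MiSeq flow-cell. Five of these buffer/ATP cycles ran, separated by NaOH stripping and re-annealing. The fluorescence ratio per cluster is summed target-cycle over summed buffer-cycle Cy3 intensity, averaged per switch-domain sequence; clusters outside 100-1000 RFU were removed.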

Sequences with one replicate were seen in a single cluster, so their values are uncertain.
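Note: ATP exposure 15 min at 22 °C before imaging.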

As to GGCTGGGGTC, the switch fluorescence ratio is 0.959.
Consider TGCGGAGAGC, for which the switch fluorescence ratio turned out to be 1.07.
For CAGCGTTCTC the value was 1.16; for GCACGCCGAC, 1.21; for CGTTGAATAG, 1.25.
Next, CAGGACATGG: 0.924; ATTCCAGCAT: 1.2.
Next, AGTTATGGC: 1.02.
As to TAGCGGTTTG, the switch fluorescence ratio stood at 0.947.
For GGTTAGCTCT the value was 0.998; for CAATGACTTG, 0.953.
CTTTATGGGC: the switch fluorescence ratio amounted to 0.994.
On to AATACGGCTT, for which the switch fluorescence ratio came out at 1.01.
As for GAATGGCGGT, the switch fluorescence ratio came to 0.998.
On to CGTCCAAGGA, for which the switch fluorescence ratio was 1.04.
As to ATTGTATCTT, the switch fluorescence ratio is 0.97.
For GGGTGCCGAA the value was 1.11; for AGATTGAGGT, 1.01.
For ACAAAGCACT the value was 1.19; for CAGGGCGAGC, 1.03.
For GTTTTCACGG the value was 0.991; for GCCTAAAGC, 0.963; for GCGACATTTC, 1.02.
As to AGATTGCACC, the switch fluorescence ratio stood at 1.02.
In the case of AAGAGATGAC, the switch fluorescence ratio is 0.963.
Turning to GTTCTTTCAT, the switch fluorescence ratio was 1.04.
For AGTGATGAGC the value was 1.01; for GGTCAAAGAC, 0.992.
TTCTGCCTG: the switch fluorescence ratio was determined as 1.01.
On to ATACATGAGC, for which the switch fluorescence ratio was 0.935.
Next, ACAAATGTGC: 1.1; GTGCTCGGGT: 1.
Next, CTAGCTTACG: 1.01; TTTAACCCGC: 1.08; TGGTGTGTAT: 0.947.
For CACAATAAGC the value was 1.09; for ACAATCAATA, 1.01.
Regarding CATTTTCCGT, the switch fluorescence ratio amounted to 1.03.
TCAGATGCCA: the switch fluorescence ratio worked out at 1.02.
Take AAAAATAGGC: the switch fluorescence ratio worked out at 1.15.
For the sequence TTAACCGGTG, the switch fluorescence ratio amounted to 0.994.
For AGCAGTAAGC the value was 1.03; for GGGGTCTGTT, 1.01.
Next, AGCATGTTGG: 0.97.
For TCATGTTCGC the value was 0.977; for GGTCAGACCG, 1.03; for AGCAATCTTC, 3.87.
Regarding AGATCTGCTA, the switch fluorescence ratio turned out to be 0.991.
For TTAACGCGGG the value was 0.973; for ACCGGTATTC, 1.01; for CTAATCATTG, 0.984.
Next, AGGCGAGAGG: 0.98.
For the sequence AATAGCGGTT, the switch fluorescence ratio was found to be 1.
For AATACCTAC the value was 1.34.
Regarding GAGGTGACGT, the switch fluorescence ratio is 0.985.
On to AGAGTAAAAA, for which the switch fluorescence ratio worked out at 0.951.
Next, CTATAAGAGT: 1.01.
For TATCTTAGGT the value was 0.996; for AGCATGGATA, 1.01; for GGAGCTATAA, 3.22.
For GGTAAAGAAC the value was 0.961; for GAATGTAATG, 1.
For GTGAAGGGCA, the switch fluorescence ratio was 1.03.
Next, TTTTCATGTC: 0.942; GAATGAGGCG: 0.974; CGTCGGTCAA: 2.23.
As to CTCCAGTATA, the switch fluorescence ratio amounted to 1.35.
